The values that follow come from the supplement of paper PMC10126150.

Values marked as one replicate rest on one cluster of the flow cell; about a third of the high ones do not repeat.

This series deals with ATP. The series can be described thus: switch fluorescence ratio, 500 uM ATP over buffer (Cy3 cluster intensity, sum of 5 cycles each) (fold (ratio)); higher = stronger signal-on switching upon ATP binding; sequences stand for … in TCGTCGGCAGCGTCAGATGTGTATAAGAGACAGTTTTTTTTTTTTTTTTTTTTTTTTT…TC. The conditions noted are these: aptamer strand: ATP DNA aptamer (quencher-CACCTGGGGGAGTATTGCGGAGGAAGG + anchor), 100 nM annealed; ATP concentration: 500 uM; one replicate. A digest of the protocol:
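Exposure to 500 uM ATP lasted 15 min at 22 °C before imaging, and a selection-buffer image was taken beforehand, for Cy3-labelled switching-strand clusters on a modified Illumina MiSeq flow-cell annealed to 100 nM quencher-labelled ATP aptamer. Five buffer/ATP cycles were run with NaOH stripping and re-annealing between them. The fluorescence ratio per cluster is summed target-cycle over summed buffer-cycle Cy3 intensity, averaged per switch-domain sequence. Clusters outside 100-1000 RFU were excluded.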
Regarding TATTAAGGGC, the switch fluorescence ratio amounted to 1.01.

Turning to AGCGTACTAA, the switch fluorescence ratio was 1.06.

For the sequence TGGCCTATTA, the switch fluorescence ratio is 1.

For CCAGGTCGTT, the switch fluorescence ratio stood at 1.29.

TTCAAAAAAT: the switch fluorescence ratio stood at 1.16.

In the case of ATTCTCCAGC, the switch fluorescence ratio is 1.1.

On to TACAAGATCG, for which the switch fluorescence ratio worked out at 1.

Consider ACGGTAAGTT, for which the switch fluorescence ratio was found to be 1.08.

With ATCGGTTGAG, the switch fluorescence ratio was found to be 0.961.

In the case of CGCAACCGCA, the switch fluorescence ratio came out at 1.26.

Regarding CAAGGAGCT, the switch fluorescence ratio is 0.958.

AAGGGGACAA: the switch fluorescence ratio amounted to 0.974.

For the sequence GTATTTCTGG, the switch fluorescence ratio came to 0.97.

Take TGGACGCATT: the switch fluorescence ratio was found to be 2.17.

Consider AGCTTTTATA, for which the switch fluorescence ratio was 1.01.

For the sequence TAGTAACTGT, the switch fluorescence ratio was found to be 1.03.

With CGGCGTTTAG, the switch fluorescence ratio was determined as 0.961.

On to TGAGTGATAC, for which the switch fluorescence ratio is 1.44.

Regarding GACCTACGCT, the switch fluorescence ratio is 1.73.

With TTCTAATGGG, the switch fluorescence ratio turned out to be 1.

With ACCCTGGGTC, the switch fluorescence ratio turned out to be 1.69.

On to TGGATAAGTA, for which the switch fluorescence ratio amounted to 0.968.

On to TGTAACCTGA, for which the switch fluorescence ratio stood at 1.5.

On to GTATCACTGC, for which the switch fluorescence ratio is 1.05.

As for TTTACCTGCG, the switch fluorescence ratio is 1.08.

With GGGCGCGCTA, the switch fluorescence ratio amounted to 0.98.

Consider GAATTGTGCA, for which the switch fluorescence ratio turned out to be 1.

For TGTTTCACCT, the switch fluorescence ratio was 1.08.

Consider CAAACTACGA, for which the switch fluorescence ratio is 1.06.

As to GAAACTAAGT, the switch fluorescence ratio stood at 0.949.

For ATACGGACGA, the switch fluorescence ratio came to 1.44.

Regarding ATTGCTTTT, the switch fluorescence ratio is 1.06.

With CTTTCTTAAC, the switch fluorescence ratio amounted to 1.26.

GCCCAAAAAT: the switch fluorescence ratio stood at 0.991.

Take CATCCGATAA: the switch fluorescence ratio amounted to 6.68.

As for ACTGGAACTT, the switch fluorescence ratio amounted to 1.08.

GGACTGAGGT: the switch fluorescence ratio was 0.985.

CCATCGCAGG: the switch fluorescence ratio turned out to be 3.08.

As to TAAGCTATGG, the switch fluorescence ratio was 1.01.

For ATATCGGAGT, the switch fluorescence ratio was 1.01.

On to GTTGCCACTT, for which the switch fluorescence ratio is 0.978.

For GGTTTGGAAG, the switch fluorescence ratio turned out to be 0.958.

TCGCTGAGTT: the switch fluorescence ratio turned out to be 1.03.

Regarding ACTCGCTTGG, the switch fluorescence ratio was determined as 1.08.

On to TATGTATTCA, for which the switch fluorescence ratio was 1.04.

Regarding TAGGAGAAAA, the switch fluorescence ratio stood at 1.02.

With CGAAAGGATA, the switch fluorescence ratio came out at 1.04.

Take TTTCTTCTTC: the switch fluorescence ratio is 0.965.

As for CAAACAGCTT, the switch fluorescence ratio was 1.01.

Turning to AGGTACTGAC, the switch fluorescence ratio was 1.22.

On to TCGGGGAACA, for which the switch fluorescence ratio was 1.03.

In the case of CATAACTTGA, the switch fluorescence ratio worked out at 0.974.

As for AGTAGGGAGG, the switch fluorescence ratio amounted to 0.944.

CATGCTTGGA: the switch fluorescence ratio is 0.971.

For TGGGAGGCAG, the switch fluorescence ratio came out at 1.02.

In the case of ACCGCTAAGT, the switch fluorescence ratio amounted to 1.26.

On to GATTTATCCT, for which the switch fluorescence ratio worked out at 0.984.

For CAGGTTACTC, the switch fluorescence ratio was 1.07.

ATTCGGGGC: the switch fluorescence ratio stood at 0.986.

CACGGCCATG: the switch fluorescence ratio turned out to be 1.03.

With TGATCCCAGT, the switch fluorescence ratio worked out at 1.06.

On to AATCTAGGTA, for which the switch fluorescence ratio is 1.03.

Consider CAAAAAAGTT, for which the switch fluorescence ratio was determined as 1.

As for TCGTAGATCC, the switch fluorescence ratio is 0.981.

Regarding ATATCCACAA, the switch fluorescence ratio was determined as 1.24.

Turning to CTTATAGTCA, the switch fluorescence ratio is 1.15.

CAACTCACGC: the switch fluorescence ratio was 1.43.

As to AAGTAGTGTA, the switch fluorescence ratio was 1.01.

TAACAGCGCA: the switch fluorescence ratio was 0.997.

Take CACTGAGTCT: the switch fluorescence ratio came to 1.05.

For the sequence CTGAGTAGTA, the switch fluorescence ratio worked out at 1.

For the sequence GTCACTGGGT, the switch fluorescence ratio was 0.989.

Take GGTGCTGTG: the switch fluorescence ratio was found to be 0.999.

In the case of TCCCCAGTAT, the switch fluorescence ratio is 1.15.

In the case of CTCGCTCACG, the switch fluorescence ratio stood at 1.07.

On to AACTCTAGAG, for which the switch fluorescence ratio worked out at 0.947.

Consider CCGTGACCGT, for which the switch fluorescence ratio was found to be 1.03.

As to CTTTCATGTG, the switch fluorescence ratio turned out to be 0.968.

Take GAACCAGCCA: the switch fluorescence ratio was 1.07.

As for CGCGGAGGAT, the switch fluorescence ratio came out at 0.971.

ATGGGCTTCA: the switch fluorescence ratio was 1.04.

Consider GATCGCCTGT, for which the switch fluorescence ratio came to 1.01.

Take TAATCAGTTG: the switch fluorescence ratio turned out to be 0.987.

Consider ATAAACTAT, for which the switch fluorescence ratio was determined as 1.

In the case of CTCGTCCACT, the switch fluorescence ratio worked out at 1.04.

With ATGATCCTAC, the switch fluorescence ratio came to 0.999.

For the sequence TTGAAGCCTT, the switch fluorescence ratio turned out to be 1.08.

With GGTCTGGGG, the switch fluorescence ratio amounted to 1.02.

As to TTAGGGAAAG, the switch fluorescence ratio amounted to 1.02.

Consider GTAATTGTTC, for which the switch fluorescence ratio is 0.939.

Consider GCGAATGGCC, for which the switch fluorescence ratio came out at 1.1.

With AACGAACCAG, the switch fluorescence ratio is 1.28.

For GGTTATATGC, the switch fluorescence ratio amounted to 0.967.

TCGCTTTGA: the switch fluorescence ratio turned out to be 1.04.

With GGATATGCCC, the switch fluorescence ratio came out at 0.986.

As to TACCGATTTA, the switch fluorescence ratio was found to be 1.06.

In the case of TACCCCTCAG, the switch fluorescence ratio was determined as 1.29.

With AGAGTAGGG, the switch fluorescence ratio was determined as 1.03.

On to ACATTAGAAT, for which the switch fluorescence ratio worked out at 0.979.

In the case of GCCATTTCGG, the switch fluorescence ratio was 0.977.

As for ACGTAGAAGG, the switch fluorescence ratio was 1.08.

On to AGGCGGAAGC, for which the switch fluorescence ratio is 0.974.

For the sequence TAAAATCCGA, the switch fluorescence ratio was found to be 1.01.

With CGCTTATGAG, the switch fluorescence ratio is 1.05.

On to TAAAGTGCA, for which the switch fluorescence ratio is 0.961.

As for AGTCACAGTT, the switch fluorescence ratio was determined as 1.07.

AGTTGGTTCG: the switch fluorescence ratio stood at 0.972.

Consider TCATGCTAGT, for which the switch fluorescence ratio amounted to 1.05.

Turning to GGATGGGTCA, the switch fluorescence ratio came to 1.02.

For CAGTCGCTTT, the switch fluorescence ratio is 1.04.

For the sequence CAAGGGAAAT, the switch fluorescence ratio was found to be 1.03.

Consider GTAGGGTTCT, for which the switch fluorescence ratio worked out at 1.25.

For GCACGTTGCA, the switch fluorescence ratio stood at 0.962.

Regarding AACGCGCGGT, the switch fluorescence ratio was 1.01.

For the sequence GACTGTCTTG, the switch fluorescence ratio is 0.957.

As to CGTGGTATGA, the switch fluorescence ratio was 1.02.

With GCCAGATTTA, the switch fluorescence ratio amounted to 1.02.

For GTTCGGGCGC, the switch fluorescence ratio is 1.04.

On to GACGGAGCGG, for which the switch fluorescence ratio came to 3.37.

Consider TGAGGCTGCA, for which the switch fluorescence ratio worked out at 1.02.
